# Data as given in the supplement of paper PMC8728848.
# The other results are listed elsewhere or left out.
# Columns and labels:
# Experiment in all cases: glycan array binding signal (z-score within array); higher = stronger binding
# Settings in all cases: glycan notation: IUPAC condensed, linker removed
# [1] = target: 3dGal(b1-3)[Fuc(a1-4)]Glc
# Summary of the method: (§1)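 From the Consortium for Functional Glycomics database, 3228 arrays were curated, keeping only those whose protein sequence was available. Binding is given as a within-array Z-score averaged across arrays sharing a protein sequence and across linkers. Negative Z-scores can be read as non-binding.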
# [2] = target: 3dGal(b1-4)Glc
# Summary of the method: as §1
# [3] = target: 4d8dNeu5Ac(a2-3)Gal(b1-4)Glc
# Summary of the method: as §1
# [4] = target: 4dNeu5Ac(a2-3)Gal(b1-4)Glc
# Summary of the method: as §1
# [5] = target: 7dNeu5Ac(a2-3)Gal(b1-4)Glc
# Summary of the method: as §1
# [6] = target: 8dNeu5Ac(a2-3)Gal(b1-4)Glc
# Summary of the method: as §1
# [7] = target: 9dNeu5Ac(a2-3)Gal(b1-4)Glc
# Summary of the method: as §1
# [8] = target: Ara(a1-5)Ara(a1-5)Ara(a1-5)Ara(a1-5)Ara(a1-5)Ara
# Summary of the method: as §1
# [9] = target: Ara(a1-5)Ara(a1-5)Ara(a1-5)Ara(a1-5)Ara(a1-5)Ara(a1-5)Ara
# Summary of the method: as §1
# [10] = target: Fuc(a1-2)Gal
# Summary of the method: as §1
# [11] = target: Fuc(a1-2)Gal(b1-3)GalNAc
# Summary of the method: as §1
# [12] = target: Fuc(a1-2)Gal(b1-3)GalNAc(a1-3)[Fuc(a1-2)]Gal(b1-4)Glc
# Summary of the method: as §1
# [13] = target: Fuc(a1-2)Gal(b1-3)GalNAc(a1-3)[Fuc(a1-2)]Gal(b1-4)GlcNAc
# Summary of the method: as §1
# [14] = target: Fuc(a1-2)Gal(b1-3)GalNAc(b1-3)Gal
# Summary of the method: as §1
# [15] = target: Fuc(a1-2)Gal(b1-3)GalNAc(b1-3)Gal(a1-4)Gal(b1-4)Glc
# Summary of the method: as §1
# [16] = target: Fuc(a1-2)Gal(b1-3)GalNAc(b1-4)[Neu5Ac(a2-3)]Gal(b1-4)Glc
# Summary of the method: as §1
# [17] = target: Fuc(a1-2)Gal(b1-3)GlcNAc
# Summary of the method: as §1
# [18] = target: Fuc(a1-2)Gal(b1-3)GlcNAc(b1-2)Man(a1-3)[Fuc(a1-2)Gal(b1-3)GlcNAc(b1-2)Man(a1-6)]Man(b1-4)GlcNAc(b1-4)GlcNAc
# Summary of the method: as §1
# [19] = target: Fuc(a1-2)Gal(b1-3)GlcNAc(b1-2)Man(a1-3)[Fuc(a1-2)Gal(b1-3)GlcNAc(b1-2)Man(a1-6)]Man(b1-4)GlcNAc(b1-4)[Fuc(a1-6)]GlcNAc
# Summary of the method: as §1
# [20] = target: Fuc(a1-2)Gal(b1-3)GlcNAc(b1-3)Gal(b1-4)Glc
# Summary of the method: as §1
# [21] = target: Fuc(a1-2)Gal(b1-3)GlcNAc(b1-3)GalNAc
# Summary of the method: as §1
# [22] = target: Fuc(a1-2)Gal(b1-3)GlcNAc(b1-3)[Fuc(a1-2)Gal(b1-3)GlcNAc(b1-6)]GalNAc
# Summary of the method: as §1
# [23] = target: Fuc(a1-2)Gal(b1-3)GlcNAc(b1-3)[Fuc(a1-3)[Gal(b1-4)]GlcNAc(b1-6)]Gal(b1-4)Glc
# Summary of the method: as §1
# [24] = target: Fuc(a1-2)Gal(b1-3)GlcNAc(b1-3)[Gal(b1-4)GlcNAc(b1-6)]Gal(b1-4)Glc
# Summary of the method: as §1
# [25] = target: Fuc(a1-2)Gal(b1-3)GlcNAc(b1-3)[Neu5Ac(a2-6)Gal(b1-4)GlcNAc(b1-6)]Gal(b1-4)Glc
# Summary of the method: as §1
# [26] = target: Fuc(a1-2)Gal(b1-3)GlcNAc6S
# Summary of the method: as §1
# [27] = target: Fuc(a1-2)Gal(b1-3)[Fuc(a1-4)]GlcNAc
# Summary of the method: as §1
# [28] = target: Fuc(a1-2)Gal(b1-3)[Fuc(a1-4)]GlcNAc(b1-2)Man(a1-3)[Fuc(a1-2)Gal(b1-3)[Fuc(a1-4)]GlcNAc(b1-2)Man(a1-3)]Man(b1-4)GlcNAc(b1-4)GlcNAc
# Summary of the method: as §1
# [29] = target: Fuc(a1-2)Gal(b1-3)[Fuc(a1-4)]GlcNAc(b1-2)Man(a1-3)[Fuc(a1-2)Gal(b1-3)[Fuc(a1-4)]GlcNAc(b1-2)Man(a1-6)]Man(b1-4)GlcNAc(b1-4)GlcNAc
# Summary of the method: as §1
# [30] = target: Fuc(a1-2)Gal(b1-3)[Fuc(a1-4)]GlcNAc(b1-2)Man(a1-3)[Fuc(a1-2)Gal(b1-3)[Fuc(a1-4)]GlcNAc(b1-2)Man(a1-6)]Man(b1-4)GlcNAc(b1-4)[Fuc(a1-6)]GlcNAc(b1-4)[Fuc(a1-6)]GlcNAc
# Summary of the method: as §1
# [31] = target: Fuc(a1-2)Gal(b1-3)[Fuc(a1-4)]GlcNAc(b1-3)Gal(b1-4)Glc
# Summary of the method: as §1
# [32] = target: Fuc(a1-2)Gal(b1-3)[Fuc(a1-4)]GlcNAc(b1-3)Gal(b1-4)[Fuc(a1-3)]GlcNAc(b1-3)Gal(b1-4)Glc
# Summary of the method: as §1
# [33] = target: Fuc(a1-2)Gal(b1-3)[Fuc(a1-4)]GlcNAc(b1-3)[Fuc(a1-2)]Gal(b1-4)Glc
# Summary of the method: as §1
# [34] = target: Fuc(a1-2)Gal(b1-3)[Fuc(a1-4)]GlcNAc(b1-3)[Fuc(a1-3)[Gal(b1-4)]GlcNAc(b1-6)]Gal(b1-4)Glc
# Summary of the method: as §1
# [35] = target: Fuc(a1-2)Gal(b1-3)[Fuc(a1-4)]GlcNAc(b1-3)[Gal(b1-4)GlcNAc(b1-6)]Gal(b1-4)Glc
# Summary of the method: as §1
# [36] = target: Fuc(a1-2)Gal(b1-4)Fuc(a1-3)]GlcNAc(b1-2)Man(a1-3)[Fuc(a1-2)Gal(b1-4)[Fuc(a1-3)]GlcNAc(b1-2)Man(a1-6)]Man(b1-4)GlcNAc(b1-4)GlcNAc
# Summary of the method: as §1
# [37] = target: Fuc(a1-2)Gal(b1-4)Glc
# Summary of the method: as §1
# [38] = target: Fuc(a1-2)Gal(b1-4)Glc6S
# Summary of the method: as §1
# [39] = target: Fuc(a1-2)Gal(b1-4)GlcNAc
# Summary of the method: as §1
# [40] = target: Fuc(a1-2)Gal(b1-4)GlcNAc(b1-2)Man
# Summary of the method: as §1
# [41] = target: Fuc(a1-2)Gal(b1-4)GlcNAc(b1-2)Man(a1-3)[Fuc(a1-2)Gal(b1-4)GlcNAc(b1-2)Man(a1-6)]Man(b1-4)GlcNAc(b1-4)GlcNAc
# Summary of the method: as §1
# [42] = target: Fuc(a1-2)Gal(b1-4)GlcNAc(b1-2)Man(a1-3)[Fuc(a1-2)Gal(b1-4)GlcNAc(b1-2)Man(a1-6)]Man(b1-4)GlcNAc(b1-4)[Fuc(a1-6)]GlcNAc
# Summary of the method: as §1
# [43] = target: Fuc(a1-2)Gal(b1-4)GlcNAc(b1-2)[Fuc(a1-2)Gal(b1-4)GlcNAc(b1-4)]Man(a1-3)[Fuc(a1-2)Gal(b1-4)GlcNAc(b1-2)Man(a1-6)]Man(b1-4)GlcNAc(b1-4)GlcNAc
# Summary of the method: as §1
# [44] = target: Fuc(a1-2)Gal(b1-4)GlcNAc(b1-3)Gal(b1-4)GlcNAc
# Summary of the method: as §1
# [45] = target: Fuc(a1-2)Gal(b1-4)GlcNAc(b1-3)Gal(b1-4)GlcNAc(b1-2)Man(a1-3)[Fuc(a1-2)Gal(b1-4)GlcNAc(b1-3)Gal(b1-4)GlcNAc(b1-2)Man(a1-6)]Man(b1-4)GlcNAc(b1-4)GlcNAc
# Summary of the method: as §1
binder,measurement,setting,value
"PNA (Arachis hypogaea), P02872 (protein) MKPFCVFLTFFLLLAASSKKVDSAETVSFNFNSFSEGNPAINFQGDVTVLSNGNIQLTNLNKVNSVGRVLYAMPVRIWSSATGNVASFLTSFSFEMKDIKDYDPADGIIFFIAPEDTQIPAGSIGGGTLGVSDTKGAGHFVGVEFDTYSNSEYNDPPTDHVGIDVNSVDSVKTVPWNSVSGAVVKVTVIYDSSTKTLSVAVTNDNGDITTIAQVVDLKAKLPERVKFGFSASGSLGGRQIHLIRSWSFTSTLITTTRRSIDNNEKKIMNMASA",glycan array binding signal (z-score),[1],-0.195
same,glycan array binding signal (z-score),[2],-0.195
same,glycan array binding signal (z-score),[3],-0.195
same,glycan array binding signal (z-score),[4],-0.195
same,glycan array binding signal (z-score),[5],-0.195
same,glycan array binding signal (z-score),[6],-0.195
same,glycan array binding signal (z-score),[7],-0.195
same,glycan array binding signal (z-score),[8],-0.195
same,glycan array binding signal (z-score),[9],-0.195
same,glycan array binding signal (z-score),[10],-0.186
same,glycan array binding signal (z-score),[11],-0.165
same,glycan array binding signal (z-score),[12],-0.156
same,glycan array binding signal (z-score),[13],-0.084
same,glycan array binding signal (z-score),[14],-0.152
same,glycan array binding signal (z-score),[15],-0.132
same,glycan array binding signal (z-score),[16],-0.153
same,glycan array binding signal (z-score),[17],-0.181
same,glycan array binding signal (z-score),[18],-0.048
same,glycan array binding signal (z-score),[19],-0.204
same,glycan array binding signal (z-score),[20],-0.204
same,glycan array binding signal (z-score),[21],-0.26
same,glycan array binding signal (z-score),[22],-0.106
same,glycan array binding signal (z-score),[23],-0.174
same,glycan array binding signal (z-score),[24],-0.21
same,glycan array binding signal (z-score),[25],-0.266
same,glycan array binding signal (z-score),[26],-0.342
same,glycan array binding signal (z-score),[27],-0.155
same,glycan array binding signal (z-score),[28],-0.041
same,glycan array binding signal (z-score),[29],-0.129
same,glycan array binding signal (z-score),[30],-0.236
same,glycan array binding signal (z-score),[31],-0.195
same,glycan array binding signal (z-score),[32],-0.195
same,glycan array binding signal (z-score),[33],-0.195
same,glycan array binding signal (z-score),[34],-0.187
same,glycan array binding signal (z-score),[35],-0.127
same,glycan array binding signal (z-score),[36],0.041
same,glycan array binding signal (z-score),[37],-0.105
same,glycan array binding signal (z-score),[38],-0.112
same,glycan array binding signal (z-score),[39],-0.165
same,glycan array binding signal (z-score),[40],-0.224
same,glycan array binding signal (z-score),[41],-0.116
same,glycan array binding signal (z-score),[42],-0.236
same,glycan array binding signal (z-score),[43],-0.199
same,glycan array binding signal (z-score),[44],-0.144
same,glycan array binding signal (z-score),[45],-0.114
